± gives the standard deviation of the averaged measurements. The list shows a part of the results.

The subject of the experiment is PfAP2-EXP AP2 domain (GST-tagged). Nature of the experiment: gcPBM binding intensity (ln(normalized median fluorescence intensity)); higher = stronger DNA binding. In outline: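 DNA-binding domains from P. falciparum, fused to GST and produced in E. coli, were put on an Agilent 4 × 180k double-stranded probe array for 1 h in 1× PBS holding 1% milk, 0.2 mg/ml BSA, 0.5% salmon testes DNA and 0.03% Triton X-100. Probes were primer-extended, 36 bp long and drawn from intergenic genomic regions, with negative controls included. After Alexa488 anti-GST antibody detection and a 488 nm scan, binding intensity was set as the highest Masliner-normalised natural-log median intensity across replicate spots of either probe orientation.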
As to “CTTCTTTTGTGATAAAGTACAAATATTTTGAAATAT [XGTACX_site1156]”, the “gcPBM binding intensity (ln)” value was 8.51 ± 0.3.

As to “AAAAAATATAAAACGAGTACATATATAATAAGCAAA [XGTACX_site1360]”, the “gcPBM binding intensity (ln)” value was found to be 9.01 ± 0.33.

Regarding “TAAATTATAACGTGCACACATATTTAAAATGAAATG [CACACA_site2820]”, the “gcPBM binding intensity (ln)” value is 9.4 ± 0.61.

Regarding “TGTTGTTACAGATATACACACATATATATATTATAT [CACACA_site5342]”, the “gcPBM binding intensity (ln)” value was 8.55 ± 0.41.

As for “TTGGGTGCATATATTTGTACACATTATTTCTATTTT [XGTACX_site3688]”, the “gcPBM binding intensity (ln)” value amounted to 9.64 ± 1.4.

As for “ATAAACATGGAAATGTATTAAAAGCAAGTATATAAA [XGTACX_negctrl_site516]”, the “gcPBM binding intensity (ln)” value was 8.87 ± 0.3.

Take “AAAAAAAATTTCTTCACACATAAATAAATAAATAAA [CACACA_site4841]”: the “gcPBM binding intensity (ln)” value is 8.55 ± 0.26.

Turning to “TGCATTTATATCTTCACACATATATATATATATATA [CACACA_site4516]”, the “gcPBM binding intensity (ln)” value amounted to 10.2 ± 0.42.

Turning to “ATATGTATATATACATGTACATATTTTTCCTTTCTT [XGTACX_site149]”, the “gcPBM binding intensity (ln)” value turned out to be 8.55 ± 0.44.

For the sequence “ATGTAATAAAATAATTGTACAATGTAACTAATTTTT [XGTACX_site2871]”, the “gcPBM binding intensity (ln)” value is 8.55 ± 0.28.

With “ATTAAAAATTCAATTGCACACGCACATATTTTAATA [CACACA_site8618]”, the “gcPBM binding intensity (ln)” value was determined as 8.45 ± 0.21.

“TATATATATATATATACACACACACCCATATATATA [CACACA_site8812]”: the “gcPBM binding intensity (ln)” value came to 10.3 ± 0.3.

On to “ACATAAATAAATTAATGTACATATATATTTGTATAT [XGTACX_site3160]”, for which the “gcPBM binding intensity (ln)” value was 8.36 ± 0.28.

As to “TTTTTTTTTTTTTCAAGTACATATATATATATATAA [XGTACX_site2098]”, the “gcPBM binding intensity (ln)” value was 8.44 ± 0.45.

Regarding “TTTTTATATGTTAAGTGTACGTTTACATTTTATACT [XGTACX_site3485]”, the “gcPBM binding intensity (ln)” value was determined as 8.63 ± 0.36.

As to “TATTATGTATGTATATGTACGTATCTTATTTTATTT [XGTACX_site5008]”, the “gcPBM binding intensity (ln)” value came to 8.52 ± 0.47.

For the sequence “TTTTTTGTATTTTTCACACACACATAAGTAAACAAT [CACACA_site1900]”, the “gcPBM binding intensity (ln)” value was 8.74 ± 0.46.

“TATACATACATTAGACGTACACATTTTACCTACACC [XGTACX_site3586]”: the “gcPBM binding intensity (ln)” value turned out to be 8.84 ± 0.46.

Turning to “AAATTATTATATATATGTACGTATAATGTATTTTGT [XGTACX_site2903]”, the “gcPBM binding intensity (ln)” value amounted to 8.4 ± 0.35.

In the case of AAATATAGAATACATGTGCACATAATATATATATAT, the “gcPBM binding intensity (ln)” value turned out to be 9.82 ± 0.29.

On to “TTTGTATCTATATATTGTACGAATTACTTTCATTTA [XGTACX_site4785]”, for which the “gcPBM binding intensity (ln)” value was found to be 8.62 ± 0.33.

Turning to “TCTTTTTAAGGGATTTTTTTTTTTTTTTTAAAAAGA [CACACA_negctrl_site1274]”, the “gcPBM binding intensity (ln)” value turned out to be 8.07 ± 0.53.

As for “AATACAATTTATAACACACACACAAGAATACCTATA [CACACA_site6705]”, the “gcPBM binding intensity (ln)” value turned out to be 8.81 ± 0.46.

With “AAAAAAAAAAAAATATATATATATATATATATATAT [GTGCAC_negctrl_site212]”, the “gcPBM binding intensity (ln)” value came to 10.1 ± 0.24.

In the case of “AAATGTAAATTTATCCGTACATATATATATTTATAT [XGTACX_site7024]”, the “gcPBM binding intensity (ln)” value was found to be 8.47 ± 0.38.

Turning to “AAAAAAAAAAATTAAAGTACAAAAATATTAAAAATA [XGTACX_site6517]”, the “gcPBM binding intensity (ln)” value worked out at 8.38 ± 0.38.

Consider “TCTGTTAAACAAAAAAGTACTAAAATAATGTAAAAT [XGTACX_site6826]”, for which the “gcPBM binding intensity (ln)” value came to 8.85 ± 0.45.

“TTAACAAAACATAAGGTGCTTAAAATTTTATATCAC [GTGCAC_site9839]”: the “gcPBM binding intensity (ln)” value was found to be 8.62 ± 0.11.

Regarding “ATTATTATATATGTATGTACTTATATAATATATATA [XGTACX_site5198]”, the “gcPBM binding intensity (ln)” value came to 8.29 ± 0.2.

Regarding “TATATATTGTTATATACACACATGTATTTAAAAAAT [CACACA_site5737]”, the “gcPBM binding intensity (ln)” value stood at 8.29 ± 0.35.

As to “ATATGTACAAGTGTTTATGCTGAACGGAAATCCTGT [CACACA_negctrl_site1372]”, the “gcPBM binding intensity (ln)” value was determined as 8.47 ± 0.45.

With “TACCTATATAGACACACACACATATATTTATTTATA [CACACA_site6728]”, the “gcPBM binding intensity (ln)” value was found to be 8.58 ± 0.37.

For “ATGTATTAAAATTTATGTACTTATATATAAATATAT [XGTACX_site1025]”, the “gcPBM binding intensity (ln)” value was 8.3 ± 0.3.

For the sequence “TATATGTATTTGTATACACACAAATGTATATATTTA [CACACA_site1265]”, the “gcPBM binding intensity (ln)” value amounted to 8.21 ± 0.49.

Consider “CATACCTTTTAATGTACACACATTTCTTTTTTGTTA [CACACA_site892]”, for which the “gcPBM binding intensity (ln)” value was found to be 8.88 ± 0.28.

Take “AAAAAAAAAAGAAACACACACATATATATATAGAAT [CACACA_site1777]”: the “gcPBM binding intensity (ln)” value came to 8.73 ± 0.59.

In the case of “AATATATATACTATAACACACATACACCCAAAAAAA [CACACA_site4453]”, the “gcPBM binding intensity (ln)” value is 8.96 ± 0.47.

For TTATATGGATATACAGTGCATATATACATATAAGTG, the “gcPBM binding intensity (ln)” value was found to be 8.61 ± 0.26.

For the sequence “TATAAACATAATATTTAACACACATGAAGATGTATA [CACACA_site8252]”, the “gcPBM binding intensity (ln)” value is 8.24 ± 0.47.

For “TACATATATTATACATGTACACATTTATACATATCG [XGTACX_site2866]”, the “gcPBM binding intensity (ln)” value stood at 8.65 ± 0.32.

Turning to “ATATGATCATACTGTGCATGTTAATGCAAATTTTAT [TGCATGCA_site984]”, the “gcPBM binding intensity (ln)” value is 8.75 ± 0.37.

Regarding TTCTCCTAATAGTTAGTGCACTACATAACTAAGAAA, the “gcPBM binding intensity (ln)” value was 9.38 ± 0.78.

As to “ATAATTGTCCATTTTTTCTTTTTTTTTTTCTTTTTA [CACACA_negctrl_site928]”, the “gcPBM binding intensity (ln)” value was 8.52 ± 0.51.

As for “TTTTTTTTTATATAAAAAAAAATTTTTATTATTTTA [GTGCAC_negctrl_site347]”, the “gcPBM binding intensity (ln)” value was found to be 8.21 ± 0.39.

For the sequence “CGCACAGACGGACACACACACACATATATATATATA [CACACA_site5249]”, the “gcPBM binding intensity (ln)” value came out at 10.1 ± 0.4.

The record behind these values is the supplement of paper PMC11417369.
